# Some of the results follow. At the low end of the ranking, values are background and their order means little.
# Molecular target: SIX1-Q177R homeodomain (UniProt Q15475)
# Test: universal protein binding microarray
# Conditions: Universal all-10-mer PBM (8x60K, AMADID 030236), 300 nM GST-tagged protein, Alexa Fluor 488 anti-GST; buffer, salt, pH and temperature not stated; high values mean tight binding; most listed sequences are background and not binding sites; double strand, one strand shown
row,Sequence,binding signal [E-score]
1,TAATTTGA,-0.155
2,GGGAAAGA,-0.122
3,ACCCGCGG,0.171
4,GCGGACCA,-0.0845
5,AAGAGCAA,0.0372
6,CGATTTGC,-0.0484
7,ACAACGGT,0.0353
8,CGACCGAA,-0.182
9,ATAGTAAC,-0.041
10,GCTTAACA,0.171
11,CGGCCTAC,0.0186
12,CATACATC,-0.00473
13,AACAATCA,-0.107
14,ATGAACAG,-0.173
15,ACGGAGTC,0.181
16,GTGATACA,0.172
17,CACTTCTC,0.101
18,CGCATCCG,-0.0492
19,CCGTCCTA,-0.147
20,CCTCGCTC,-0.000145
21,CGACGAAA,-0.321
22,ACAGAGAC,0.0948
23,AAAGTGGA,-0.197
24,CCCACAGA,0.0594
25,AGGTAAAT,-0.0303

row,Sequence,binding signal [E-score]
1,ACCTGGCC,0.081
2,GCTTAAAA,-0.217
3,AAAAAGCC,-0.261
4,GAACATAA,-0.354
5,AGATGCAG,-0.153
6,AATAAGTC,-0.199
7,CTGCTTCC,-0.203
8,CATTGGAC,0.000505
9,ACCCCCGG,0.305
10,ATAGACGA,-0.149
11,CGTAACTA,-0.0947
12,ATCGTTGA,-0.188
13,ATTACTTA,-0.101
14,CCTTAGCC,-0.0382
15,CCCAGCCA,0.106
16,AGGGTCCG,0.0921
17,CCTAGCGC,-0.206
18,ACGTCTCG,-0.093
19,CTCACCAG,-0.039
20,CAAGGGTG,0.252
21,AGGCGTCA,0.13
22,CCGGACAG,-0.132
23,ACTGCGCC,-0.144
24,AATGCCAG,-0.359
25,CGACGTAC,0.117

row,Sequence,binding signal [E-score]
1,CCATCGAG,0.104
2,CCCGTCCA,-0.0257
3,CGCGTTGA,-0.0432
4,ACGGATAG,0.0733
5,ATCCACTG,-0.0855
6,TTCGGAAA,-0.305
7,ATGTTACC,-0.000635
8,ACTTACGG,0.0716
9,GACGGAGA,-0.125
10,CTGGATAC,0.222
11,AAACAATT,-0.248
12,ACTGCGAA,-0.296
13,ACATGTAA,0.0357
14,GTTTTCTA,-0.0704
15,CCATATCG,0.0847
16,GACATAAA,-0.143
17,TGCACGCA,0.0617
18,CCTTAGAA,0.103
19,ACTAGAAG,-0.0287
20,CACGTCGA,0.177
21,ACTGTACG,-0.094
22,GGAGCAAA,-0.23
23,ATACGATA,0.0741
24,CAATTATA,-0.253
25,CCCTTGTA,0.208

row,Sequence,binding signal [E-score]
1,TGCAACAA,-0.0271
2,CAGCTAAG,-0.11
3,AAAGTATA,-0.158
4,AGGGGAAG,0.123
5,GGAAGCCA,-0.235
6,AACGTGGT,-0.0159
7,CTATCGGA,-0.072
8,CGTCACTA,0.0632
9,AGGTCCTA,-0.0921
10,ACAGGCCG,-0.0796
11,ATCGGCAG,-0.081
12,CATACGCC,0.0823
13,TCCCGCGA,0.0888
14,CATGAATA,-0.0546
15,AACGCTAG,0.0725
16,CATGGCGC,-0.159
17,GAGGAGAA,-0.0834
18,GGCTCCCC,-0.00441
19,GCATCTTA,-0.139
20,CATGTAGA,-0.0744
21,ACGGAGTG,0.167
22,ACAGACGC,0.0512
23,AATAATAT,-0.0332
24,CCCTACGC,0.0375
25,GGTCAGGA,0.0543

row,Sequence,binding signal [E-score]
1,ACGTCGCC,-0.0847
2,CTAGTGGA,0.0148
3,CCAGAAAA,0.0038
4,CGGGTCTA,0.0718
5,CTGCCGCA,-0.165
6,GAGTCGGC,0.0544
7,AGCGGACT,-0.249
8,GTCTGGGA,-0.116
9,CCTGCGTC,-0.0174
10,ACAGGGGC,0.028
11,AGTGCCGG,0.00171
12,ATTTATGC,-0.0985
13,CTAGCCTA,-0.181
14,GGATCTAA,0.0388
15,GAAAGCTA,0.00483
16,GAAAGAGC,-0.203
17,GCGAGAAA,-0.198
18,CCATAAAA,-0.208
19,CTTCAGCC,-0.0579
20,GTTAACAA,0.00726
21,CTCTGCAC,0.0268
22,ATCGTTTC,-0.243
23,CCAAGCAG,-0.211
24,AAATAGAA,-0.272
25,TGCCACAA,-0.183

row,Sequence,binding signal [E-score]
1,CCGGTCGC,-0.228
2,CCCGAAGA,-0.0573
3,CTGTCCGC,-0.248
4,AGCCAAAG,-0.213
5,CCAACAGG,0.00226
6,CTATTATC,-0.0413
7,CAAAACTG,-0.0527
8,ACTGCATG,-0.0929
9,AGCGGCCC,-0.109
10,GCCCTTAA,-0.137
11,ATGACTGG,0.0975
12,GTGTGAAC,0.362
13,GGCAGTTA,0.0716
14,ATGCAACG,0.0449
15,AAAATGGG,-0.276
16,CGGGGCTC,-0.0145
17,ATAGAGTA,-0.0184
18,AGTGAAAT,-0.317
19,TGACTCAA,-0.248
20,CTTAAAAG,-0.24
21,CCGTCGCG,0.0978
22,TAAGGTAA,0.053
23,CAAGGGCA,-0.0794
24,ATAGAGAA,-0.0459
25,AATTATCT,-0.225

row,Sequence,binding signal [E-score]
1,TATAAGCA,-0.142
2,GTGAGTTA,-0.0803
3,ACTAAACC,0.106
4,GGTCTATA,-0.0594
5,ATGCAAAT,0.00259
6,ATCGTACA,0.132
7,CTACACAA,0.119
8,ACCAGCCA,-0.012
9,CATGATAG,-0.0993
10,TACTGCTA,-0.0332
11,TCGCTACA,-0.0419
12,GAGCCCAC,0.0874
13,AGCGCTGG,-0.234
14,CCCCTTAG,0.128
15,ACCGAAAC,0.0339
16,CTCTCTTC,-0.152
17,ATAATGTG,-0.0492
18,GCCCGCGA,-0.128
19,AGGAAAAC,-0.0414
20,CTTTCGTA,-0.192
21,TGAGGGAA,-0.0497
22,ATCTGATC,0.105

# From paper PMC10668032
